Measured values reported in PubChem BioAssay AID488969 (Vanderbilt High Throughput Screening Facility, 2010).
Whole data set: some 110,000 compounds, median “z-score” near -0.1, cut for the highest 2% near 2. The list shows a part of the results. Calls of active or inactive are those of the source.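 Rule for the calls: active = z-score in the third read window above 3 or below -3; inactive = the rest.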

Biological target: Metabotropic glutamate receptor 8 (Rattus norvegicus) (UniProt P70579)
Test: mGluR8 Gi/Go-coupled signaling modulation – cell-based, rat, thallium flux, HTS, primary screen (AID 488969)
Settings: HEK293 rat mGluR8, GIRK (G protein-gated inwardly rectifying potassium channel) thallium flux, FluoZin2; at 10 µM; stronger effect = higher value; submaximal glutamate (EC20) added with thallium

Sequence of UniProt P70579 (P70579 whole entry, looked up): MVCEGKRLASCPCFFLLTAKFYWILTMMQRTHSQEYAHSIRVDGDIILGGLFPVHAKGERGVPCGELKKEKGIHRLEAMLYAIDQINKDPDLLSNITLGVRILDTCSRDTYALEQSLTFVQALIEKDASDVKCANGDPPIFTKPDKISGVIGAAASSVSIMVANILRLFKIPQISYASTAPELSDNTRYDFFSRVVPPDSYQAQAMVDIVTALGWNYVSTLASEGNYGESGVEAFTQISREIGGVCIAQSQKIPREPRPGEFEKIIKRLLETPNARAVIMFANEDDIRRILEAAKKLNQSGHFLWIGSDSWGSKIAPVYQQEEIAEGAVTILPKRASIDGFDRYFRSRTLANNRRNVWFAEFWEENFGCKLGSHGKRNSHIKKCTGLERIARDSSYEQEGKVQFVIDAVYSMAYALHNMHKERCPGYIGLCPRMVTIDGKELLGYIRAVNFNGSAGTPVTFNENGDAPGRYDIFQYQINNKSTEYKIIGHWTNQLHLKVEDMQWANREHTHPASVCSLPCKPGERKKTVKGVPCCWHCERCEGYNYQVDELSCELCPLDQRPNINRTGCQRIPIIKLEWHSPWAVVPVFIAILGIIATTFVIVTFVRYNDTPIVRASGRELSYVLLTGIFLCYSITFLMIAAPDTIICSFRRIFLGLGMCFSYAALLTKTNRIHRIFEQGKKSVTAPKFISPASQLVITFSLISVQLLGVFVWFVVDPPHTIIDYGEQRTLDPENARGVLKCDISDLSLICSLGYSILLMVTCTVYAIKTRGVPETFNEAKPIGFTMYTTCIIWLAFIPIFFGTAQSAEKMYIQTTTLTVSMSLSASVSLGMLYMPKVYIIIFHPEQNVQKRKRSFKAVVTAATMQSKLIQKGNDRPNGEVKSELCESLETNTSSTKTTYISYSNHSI

| Structure (SMILES) | z-score |
| --- | --- |
| COC(C(=O)Nc1ccc(S(=O)(=O)Nc2cccc3ccccc23)cc1)c1ccccc1 (centres undefined) | -0.115 |
| O=S(=O)(c1ccc(Cl)cc1)N1CCN(c2nc(-c3cccs3)nc3ccccc23)CC1 | -0.166 |
| Cc1ccc(S(=O)(=O)C2CCCCC2=O)cc1 (centres undefined) | -0.299 |
| COc1ccc(CNc2oc(COc3ccccc3)nc2C#N)cc1 | -0.365 |
| C=CCNC(=S)Nc1cc(S(=O)(=O)N2CCOCC2)ccc1-n1cncn1 | -0.526 |
| Cc1ccc(C(=O)OCC(=O)c2ccc(Cl)s2)s1 | -0.00745 |
| Cn1c(Br)nc2c1c(=O)n(CC(O)COc1ccccc1)c(=O)n2C (centres undefined) | 0.109 |
| CCSc1nnc2c(n1)OC(c1ccc(C(=O)O)cc1)N(C(C)=O)c1ccccc1-2 (centres undefined) | -0.0637 |
| CN1CCN(C(=O)c2cc(-c3ccccc3)on2)CC1 | 0.0853 |
| COC(=O)C(NC(=O)c1ccc(OC)cc1)(Nc1ncc(S(=O)(=O)c2ccc([N+](=O)[O-])cc2)s1)C(F)(F)F (centres undefined) | -0.144 |
| COc1ccc(N2CCN(CCC(N)=O)CC2)cc1 | -0.173 |
| CCN(CC)CCCn1c(=S)[nH]c2ccc(Cl)cc2c1=O | 0.0726 |
| O=C(O)CN1C(=O)SC(Nc2ccc(C(=O)O)cc2)C1=O (centres undefined) | -0.214 |
| O=C(Oc1ccc(N(Cc2cccs2)C2=NS(=O)(=O)c3ccccc32)cc1)c1ccccc1Cl | -0.19 |
| COc1ccc(S(=O)(=O)Cc2ccc(C(=O)NC(C)C)o2)cc1 | 0.419 |
| CCOC(=O)CNC(=O)CSc1nnc(-c2cccc(OC)c2)n1CC | 0.611 |
| CC1Cc2ccccc2N1C(=O)CSc1nnc(Cc2ccccc2)n1CCc1ccccc1 (centres undefined) | 0.082 |
| O=C(NCCCN1CCN(Cc2ccccc2Cl)CC1)Nc1ccccc1 | -0.159 |
| O=C(CCCOc1ccccc1)Nc1nccs1 | -1.29 |
| CCOC(=O)c1sc(NC(=O)c2ccccc2OC)nc1C | 0.136 |
| Cc1ccc(S(=O)(=O)NC(CN2CCOCC2)=NCCNS(=O)(=O)c2ccccc2)cc1 | 0.133 |
| COc1cccc(C2C(C(=O)c3cc4ccccc4o3)=C(O)C(=O)N2CCN(C)C)c1OC (centres undefined) | -0.0254 |

| Structure (SMILES) | z-score |
| --- | --- |
| COCCCNC(=O)CN(Cc1ccc(Cl)cc1)S(C)(=O)=O | 0.901 |
| CCOC(=O)c1cnn(-c2cc(C(C)(C)C)nc3c(-c4ccccc4)c(C)nn23)c1N | -0.143 |
| CCCCCn1nc(C)c2c(C)cc(=O)[nH]c21 | -0.088 |
| CCc1ccc(OCC(=O)Nc2ccc(-c3nc4ccccc4o3)c(O)c2)cc1 | 0.25 |
| CC(OC(=O)CCCN1C(=O)c2ccccc2C1=O)C(=O)Nc1ncc(Cl)cc1Cl (centres undefined) | 2.08 |
| CCOC(=O)c1ccc(COC(=O)c2nonc2N)cc1 | -0.0847 |
| O=C(CN1CCC(C(O)(c2ccccc2)c2ccccc2)CC1)Nc1cc(Cl)ccc1Cl | 0.472 |
| CCCOC(=O)NC(CC)COC(=O)Nc1cccc(C)c1C (centres undefined) | active: 3.15 |
| O=C(Nc1ccc(Br)cc1F)C1CCCO1 (centres undefined) | -0.0425 |
| CCCC12CN3CC(C)(CN(C1)C31CCCCC1)C2=O | -0.279 |
| CCOc1ccc(NS(=O)(=O)c2ccc3[nH]cc(C(=O)NC(C)CC)c(=O)c3c2)cc1 (centres undefined) | -0.000843 |
| CC(C)NC(=O)c1ccc(CS(=O)(=O)c2ccc(Br)cc2)o1 | -0.196 |
| O=C(NC1(C(=O)NC2CCCCC2)CCCCC1)c1ccc2c(c1)OCO2 | -0.289 |
| COc1cccc(-c2nn(C)c3sc(C(=O)NCc4ccc(C)cc4)cc23)c1 | -0.18 |
| CCN(CC)c1nc(N)nc(N(c2ccccc2)c2ccccc2)n1 | -0.177 |
| CSCCC(NS(=O)(=O)c1ccc2c(c1)oc(=O)n2C)C(=O)NC1CCCCC1 (centres undefined) | -0.279 |
| O=S(=O)(c1ccc2nc(Cc3cccc(C(F)(F)F)c3)[nH]c2c1)N1CCOCC1 | -0.766 |
| COc1ccc(/C=N/NC(=O)C2c3ccccc3-c3ccccc32)cc1 | -0.068 |
| COc1cc(N2CCCC2)c(OC)cc1/C=C1/NC(=S)NC1=O | -1.62 |
| O=C(O)c1ccc2c(c1)C(c1ccccc1)OC2=O (centres undefined) | -0.285 |
| CCC(=NCc1ccco1)c1c(C(F)(F)F)[nH]n(-c2nc3ccccc3s2)c1=O | -0.0533 |
| CCCC(=O)n1nc(-c2ccco2)nc1N | -0.0155 |

| Structure (SMILES) | z-score |
| --- | --- |
| Cc1ccn2c(NC(=O)C(C)(C)Oc3ccc(Cl)cc3)c(-c3cccs3)nc2c1 | -0.19 |
| O=S(=O)(NCc1cccnc1)c1ccc(Cl)s1 | 0.136 |
| C=CCSc1nnc(-c2cc3c(C(F)(F)F)nn(C)c3s2)n1C | 0.12 |
| C=C(C)C1CC=C(C)/C(=N/NC(=O)COc2ccccc2C)C1 (centres undefined) | 1 |
| Cc1c(NC(=O)c2ccc3ncccc3c2)c(=O)n(-c2ccccc2)n1C | -0.371 |
| CCOC(=O)C1=NNC2(c3ccc(Cl)cc3)C(=O)N(c3ccc(C)cc3)C(=O)C12 (centres undefined) | -0.0691 |
| Clc1ccccc1OCc1nn2c(-c3ccncc3)nnc2s1 | -1.28 |
| CCOC(=O)c1c(NC(=O)C2CCCN(S(=O)(=O)c3ccccc3)C2)sc2c1CCCC2 (centres undefined) | 0.269 |
| Cc1ccc(S(=O)(=O)NCC(=O)OCC(=O)NC(=O)c2cccn2C)cc1 | -1.09 |
| COc1ccc(F)cc1S(=O)(=O)NCc1ccccc1 | 0.33 |
| CC(=O)NC1(C(F)(F)F)C(=O)NC(C)=C1C#N (centres undefined) | -1.29 |
| CCc1ccc(N2CC34C=CC(O3)C(C(=O)OC(C)C)C4C2=O)cc1 (centres undefined) | -0.444 |
| Cc1nc(SCC(=O)N2CCCc3ccccc32)c2oc3ccccc3c2n1 | 1.25 |
| O=C1c2ccccc2CCC12N=NCC2c1ccc(Cl)cc1 (centres undefined) | -0.484 |
| Cc1ccc(NC(=O)COC(=O)c2sccc2C)cc1S(=O)(=O)N1CCOCC1 | 1.38 |
| O=C(Nc1ccc(Cl)c(S(=O)(=O)Nc2ccccc2Cl)c1)c1cccs1 | -0.616 |
| CNS(=O)(=O)c1cc(OCC(N)=O)c(C)cc1Cl | 0.25 |
| NS(=O)(=O)c1ccc(CNC(=O)/C=C/c2ccccc2)cc1 | -0.244 |
| CC(=O)Nc1ccc(OC(=O)c2cccnc2)cc1 | -0.52 |
| O=C(O)COc1ccc(/C=N/n2c(COc3ccccc3)nc3ccccc3c2=O)cc1 | -0.124 |
| Cc1ccc(N2C(=O)c3n[nH]c(C)c3C2c2ccco2)cc1 (centres undefined) | -0.43 |
| Cc1cccc(-c2noc(CCC(=O)Nc3ccccc3)n2)c1 | 0.461 |

| Structure (SMILES) | z-score |
| --- | --- |
| Cc1nc(C(=O)N(C)C)nn1-c1ccc(Cl)cc1Cl | 0.0355 |
| COc1cccc(NC(=O)c2ccco2)c1 | -0.0273 |
| N#Cc1cc(N)ccc1Sc1ccccc1 | -0.207 |
| CCc1ccc(OCc2nnc(SCCN3CCOCC3)n2CC)cc1 | -0.0812 |
| CN(c1ccccc1)S(=O)(=O)c1ccc(NC(=S)Nc2ccccc2)cc1 | -0.168 |
| CC1(C)Cc2c(C#N)c(N3CCCC3)nc(-c3ccco3)c2CO1 | -0.157 |
| O=C(NCCCNC(=O)c1cccs1)c1cccs1 | 0.0412 |
| CC(C#CCN1CCCCC1)OCCOCc1ccccc1 (centres undefined) | -0.301 |
| CCCCN1C2=NCCCN2c2ccccc21 | -0.957 |
| CCCCOC(=O)C1CN(c2ccccc2)N=C1C(=O)OCC (centres undefined) | -0.345 |
| CCCN(CCC)C(=O)Cn1c2ccccc2c2nc(=O)cc(C)n21 | -1.12 |
| COc1ccccc1N1CCN(C(=O)CSc2nnc3c4ccccc4nc(Cc4ccccc4)n23)CC1 | -0.296 |
| CCOC(=O)C1=C(c2cccc(Oc3ccccc3)c2)NC(=S)NC1C (centres undefined) | -0.382 |
| COc1cc(/C=N\NC(=O)c2ccc(Cn3nc([N+](=O)[O-])c(Cl)c3C)o2)ccc1O | -0.186 |
| O=C(NCc1nc2ccccc2[nH]1)c1ccc(Cl)c(S(=O)(=O)N2CCCC2)c1 | -0.297 |
| CCOC(=O)CSc1nc2c(c(=O)n1-c1ccc(OC)cc1)SCC2 | -0.486 |
| COc1cc(-c2nc3n(n2)C(c2ccc(F)cc2)C2=C(CCCC2=O)N3)cc(OC)c1OC (centres undefined) | 0.741 |
| O=S(=O)(c1ccc(C2CCCCC2)cc1)N1CCCC1 | -0.277 |
| COc1ccc(-n2c(=O)c3c4c(sc3n3c(C)nnc23)CC(C)CC4)cc1 (centres undefined) | active: -3.05 |
| O=C(CN(c1ccccc1)S(=O)(=O)c1ccccc1)Nc1ccccc1C(=O)NCc1ccco1 | -0.212 |
| c1ccc(CSc2n[nH]c(-c3ccco3)n2)cc1 | 0.877 |
| COc1ccc(N2C(=O)CC(Nc3cccc(C(C)=O)c3)C2=O)cc1OC (centres undefined) | -0.0978 |

| Structure (SMILES) | z-score |
| --- | --- |
| O=C(CN(C(=O)c1ccc(Cl)cc1Cl)N1C(=O)C2C3C=CC(C3)C2C1=O)c1ccc(F)cc1 (centres undefined) | -0.194 |
| CCC(Cc1ccccc1)NC(=O)CN(C)S(=O)(=O)c1ccc2c(c1)c(=O)n(C)c(=O)n2C (centres undefined) | -0.144 |
| CSCCC1C(C#N)=C(N)Oc2n[nH]c(-c3cccs3)c21 (centres undefined) | -0.543 |
| COc1ccc2[nH]c(=O)c(CN(CC3CCCO3)C(=O)Nc3ccc(F)cc3)cc2c1 (centres undefined) | -0.93 |
| CNC(=O)COC(=O)[C@@H](Nc1ccc(S(=O)(=O)N2CCOCC2)cc1[N+](=O)[O-])C(C)C | -0.0667 |
| Cc1cc(C)c(C(N)=O)c(Nc2cccc3ccccc23)n1 | 0.14 |
| CN(C)c1oc(/C=C/c2ccccc2)nc1C#N | 0.108 |
| CC(=O)OC(C(=O)n1nc(C)cc1C)c1ccccc1 (centres undefined) | 0.38 |
| c1ccc(CCNc2nnnn2-c2ccccc2)cc1 | 0.0093 |
| Cc1ccc(S(=O)(=O)N2CCCC(c3nc(-c4ccc(C)o4)no3)C2)cc1 (centres undefined) | -0.326 |
| Cc1cc(C)c(C#N)c(SCC2COc3ccccc3O2)n1 (centres undefined) | -0.341 |
| CCOC(=O)c1c(-c2cccc([N+](=O)[O-])c2)csc1NC(=O)CCCOc1ccccc1OC | -0.344 |
| Cc1nc(NCC2CCCO2)[nH]c(=O)c1CCC(C)C (centres undefined) | 0.502 |
| c1ccc(C(Cc2nc(-c3cccnc3)no2)c2ccccc2)cc1 | 0.232 |
| O=c1c2ccccc2nnn1CSc1nnc(Nc2ccccc2)s1 | -1.46 |
| COC(=O)c1ccccc1S(=O)(=O)C(C)(C)C | -0.0721 |
| Cc1cc(C)n(CC2CC(=O)N(c3ccc(F)c(Cl)c3)C2=O)n1 (centres undefined) | 0.64 |
| O=C(c1ccco1)N1CCN=C1SCc1ccccc1Cl | -0.489 |
| CCn1ncc(/C=N\NC(=O)c2cc(-c3ccc(C)cc3C)nc3ccccc23)c1C | -0.571 |
| C=CCc1cc(Cl)ccc1OCCCNC(C)C | 0.878 |
| CCOc1ccc(S(=O)(=O)Nc2ccccc2C(=O)N/N=C/c2c(OC)ccc3ccccc23)cc1 | -0.58 |
